# Laboratory results published in publication PMC4336329 (PLoS ONE, 2015).
# The campaign covered roughly 310,000 compounds. About 14,000 (4.5%) showed an effect of 50% or more. The effect is printed as a negative number. The list shows a part of the results.
# Target: human ether-à-go-go-related gene (hERG) potassium channel (human, UniProt Q12809)
# Assay: primary screen, population patch clamp on CHO cells stably expressing hERG
# 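Further: peak tail current of the secondary pulse compared with the same well before compound.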
# Chain of human ether-à-go-go-related gene (hERG) potassium channel (Q12809 whole entry, looked up): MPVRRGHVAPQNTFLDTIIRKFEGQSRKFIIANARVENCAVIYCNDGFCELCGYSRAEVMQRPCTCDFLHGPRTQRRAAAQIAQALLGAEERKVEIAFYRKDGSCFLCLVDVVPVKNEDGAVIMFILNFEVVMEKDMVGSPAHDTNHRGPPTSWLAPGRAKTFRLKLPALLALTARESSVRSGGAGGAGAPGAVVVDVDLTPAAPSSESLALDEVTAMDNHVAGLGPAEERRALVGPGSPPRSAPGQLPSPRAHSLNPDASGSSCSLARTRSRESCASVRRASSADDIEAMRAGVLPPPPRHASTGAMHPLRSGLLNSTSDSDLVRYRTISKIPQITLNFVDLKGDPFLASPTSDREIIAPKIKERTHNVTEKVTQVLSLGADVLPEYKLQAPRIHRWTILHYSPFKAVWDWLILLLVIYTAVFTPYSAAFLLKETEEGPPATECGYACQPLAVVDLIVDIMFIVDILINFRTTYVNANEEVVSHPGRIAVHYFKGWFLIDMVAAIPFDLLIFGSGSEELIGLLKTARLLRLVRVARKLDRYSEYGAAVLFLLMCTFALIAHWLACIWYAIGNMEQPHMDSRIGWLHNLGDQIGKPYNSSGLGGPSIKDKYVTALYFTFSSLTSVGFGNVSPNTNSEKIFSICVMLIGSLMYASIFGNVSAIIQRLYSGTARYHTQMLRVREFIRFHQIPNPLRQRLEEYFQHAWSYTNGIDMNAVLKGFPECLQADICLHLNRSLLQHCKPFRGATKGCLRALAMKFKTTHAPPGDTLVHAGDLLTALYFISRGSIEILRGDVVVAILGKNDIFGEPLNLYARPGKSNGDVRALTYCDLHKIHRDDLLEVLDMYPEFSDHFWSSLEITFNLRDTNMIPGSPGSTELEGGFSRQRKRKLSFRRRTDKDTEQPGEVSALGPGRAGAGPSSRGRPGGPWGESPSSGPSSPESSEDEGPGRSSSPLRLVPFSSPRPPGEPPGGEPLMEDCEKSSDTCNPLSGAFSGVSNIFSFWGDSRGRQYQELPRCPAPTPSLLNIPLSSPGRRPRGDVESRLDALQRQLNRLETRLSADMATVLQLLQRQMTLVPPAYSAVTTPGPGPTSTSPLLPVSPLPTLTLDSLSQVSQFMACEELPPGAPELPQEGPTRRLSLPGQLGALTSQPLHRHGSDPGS
row,SMILES,"hERG current change (%, negative = inhibition) at 10uM [%]"
1,COc1cccc(N2CC(NS(=O)(=O)c3cccnc3)CC2=O)c1 (centres unmarked),-4.15
2,COc1cc(NC(=O)CN2C(=O)C(=O)N(C3CCCC3)C2=O)cc(OC)c1,1.58
3,C#CCOc1ccc2c(C)cc(=O)oc2c1,1.74
4,Cc1ccccc1C(=O)N1CCC(C(=O)Nc2ccc(S(=O)(=O)N3CCCC3)cc2)CC1,-2.51
5,CC(C)(C)NC(=O)C(c1cccs1)N(CC1CCCO1)C(=O)Cn1nnc(-c2cccs2)n1 (centres unmarked),-4.96
6,Cc1cccc(NC(=O)CSc2nnnn2C)n1,17.6
7,CC(Oc1ccc(F)cc1)C(O)CCN(C)C (centres unmarked),26
8,COc1cc(OC)cc(C(=O)Nc2ccccc2S(=O)(=O)N2CCCC2OC(C)=O)c1 (centres unmarked),-8.54
9,O=C(c1nc2ccc(Cl)cn2c1CNCC[C@@H]1C[C@@H]2C=C[C@H]1C2)N1CCCCCCC1,3.14
10,O=C(C[n+]1cccc(/C=N/O)c1)N(Cc1ccccc1)Cc1ccccc1.[Cl-],-1.91
11,COc1ccc(N(C)C(=O)c2cnc(N3CCN(c4ncccn4)CC3)c3ccccc23)cc1,-11.8
12,N#CCCN1CCN(Cc2cc(-c3ccccc3)ccc2O)CC1,-48.8
13,COc1ccc(CN(CC(=O)NCc2ccccc2)C(=O)c2csnn2)cc1,-26.6
14,Cc1ccc(NC(=O)Cn2cc(S(=O)(=O)c3ccccc3)c(=O)c3cc(F)ccc32)cc1,-5.8
15,O=C(/C=C/c1ccc([N+](=O)[O-])cc1)NCc1ccccn1,-49.2
16,O=S(=O)(NCc1ccccn1)c1ccc(Cl)s1,14.9
17,COc1cc(/C=C2\SC(=S)N(NC(=O)c3cccnc3)C2=O)ccc1O,-6.14
18,CC(C)CNC(=O)COC(=O)C1c2ccccc2Oc2ccccc21,-27.2
19,Cc1sc2nc3n(c(=O)c2c1C)CCCCC3,-9.59
20,CC[C@@H](C)[C@H](NC(=O)Cc1c(C)c2cc3c(C)c(C)oc3c(C)c2oc1=O)C(=O)O,-7.43
21,CCN(C(=O)CSc1nc2ccccc2c(=O)n1C(C)COC)C1CCS(=O)(=O)C1 (centres unmarked),-22.8
22,Cc1ccc(S(=O)(=O)CCC(=O)NCCC2=CCCCC2)cc1,2.86

row,SMILES,"hERG current change (%, negative = inhibition) at 10uM [%]"
1,O=C(CN(Cc1ccccc1Cl)C(=O)CNS(=O)(=O)c1ccccc1)NCC1CCCO1 (centres unmarked),11.3
2,CCCCN(C)C(=O)c1cc2cc3ccc(OC)cc3nc2s1,11
3,CCOC(=O)C1=C(C)NC(=O)NC1c1cccs1 (centres unmarked),11.5
4,CC(C(=O)Nc1nccs1)c1ccc([N+](=O)[O-])cc1 (centres unmarked),-72
5,O=C(Nc1cc(C(=O)Nc2ccccc2C(=O)O)cc(C(=O)Nc2ccccc2C(=O)O)c1)c1ccccc1,7.91
6,Cc1ccc(Oc2nc(-c3ccccn3)nc3ccccc23)cc1,-9.59
7,Fc1ccc(N2CCN(Cc3c[nH]c4ccccc34)CC2)cc1,-68.3
8,COc1ncnc2c1ncn2CC1COC(C)(C)O1 (centres unmarked),15.9
9,Oc1cccc2c(NC(=S)Nc3ccc(SC(F)F)cc3)cccc12,-1.61
10,CC(=O)C1=C(C)N(Cc2ccccc2)C(=O)N[C@H]1c1ccco1,1.2
11,O=C(OCC(=O)N1CCc2ccccc2C1)c1cccnc1Cl,-0.321
12,COc1ccc(NS(=O)(=O)c2cc(NC(=O)c3nn(C)c(=O)c4ccccc34)ccc2OC)cc1,12.2
13,CCCCCc1cc(=O)oc2c(C(CCN3CCCC(C)C3)c3ccc(N(C)C)cc3)c(OC)cc(OC)c12 (centres unmarked),6.65
14,CC(C)NC(=O)NC(=O)COC(=O)c1ccccc1Oc1ccccc1,-8.48
15,O=C1Cc2ccccc2Sc2ccc(O)cc21,16.4
16,CCN1CCN(C(c2cccs2)C(C)NC(=O)C(=O)N2CCCCC2)CC1 (centres unmarked),11.3
17,Cc1ccc(S(=O)(=O)N(C)C)cc1NC(=O)C1CCCC1,2.05
18,Cc1ccc(C(C(=O)NC2CCCC2)N(Cc2ccc3c(c2)OCO3)C(=O)Cc2cccs2)cc1 (centres unmarked),-4.63
19,CC(C)NC(=O)CCNC(=O)c1ccc(F)cc1,3.82
20,O=c1c2ccccc2[nH]c(=S)n1CCCn1ccnc1,-0.744
21,CC(C)=CCN1CCN(C/C(Cl)=C/c2ccccc2)CC1CCO (centres unmarked),-26.9
22,CC1CCCN(C(=O)c2ccc([N+](=O)[O-])o2)C1 (centres unmarked),21.6
